Results published in publication PMC4336329 (PLoS ONE, 2015).
In all, about 310,000 compounds went through this assay and about 2,200 (0.71%) showed an effect of 50% or more. Effects have a minus sign here. Some of the results follow.

What follows are compounds tested against human ether-à-go-go-related gene (hERG) potassium channel (human, UniProt Q12809) (assay: primary screen, population patch clamp on CHO cells stably expressing hERG).
human ether-à-go-go-related gene (hERG) potassium channel, sequence (Q12809 whole entry, looked up): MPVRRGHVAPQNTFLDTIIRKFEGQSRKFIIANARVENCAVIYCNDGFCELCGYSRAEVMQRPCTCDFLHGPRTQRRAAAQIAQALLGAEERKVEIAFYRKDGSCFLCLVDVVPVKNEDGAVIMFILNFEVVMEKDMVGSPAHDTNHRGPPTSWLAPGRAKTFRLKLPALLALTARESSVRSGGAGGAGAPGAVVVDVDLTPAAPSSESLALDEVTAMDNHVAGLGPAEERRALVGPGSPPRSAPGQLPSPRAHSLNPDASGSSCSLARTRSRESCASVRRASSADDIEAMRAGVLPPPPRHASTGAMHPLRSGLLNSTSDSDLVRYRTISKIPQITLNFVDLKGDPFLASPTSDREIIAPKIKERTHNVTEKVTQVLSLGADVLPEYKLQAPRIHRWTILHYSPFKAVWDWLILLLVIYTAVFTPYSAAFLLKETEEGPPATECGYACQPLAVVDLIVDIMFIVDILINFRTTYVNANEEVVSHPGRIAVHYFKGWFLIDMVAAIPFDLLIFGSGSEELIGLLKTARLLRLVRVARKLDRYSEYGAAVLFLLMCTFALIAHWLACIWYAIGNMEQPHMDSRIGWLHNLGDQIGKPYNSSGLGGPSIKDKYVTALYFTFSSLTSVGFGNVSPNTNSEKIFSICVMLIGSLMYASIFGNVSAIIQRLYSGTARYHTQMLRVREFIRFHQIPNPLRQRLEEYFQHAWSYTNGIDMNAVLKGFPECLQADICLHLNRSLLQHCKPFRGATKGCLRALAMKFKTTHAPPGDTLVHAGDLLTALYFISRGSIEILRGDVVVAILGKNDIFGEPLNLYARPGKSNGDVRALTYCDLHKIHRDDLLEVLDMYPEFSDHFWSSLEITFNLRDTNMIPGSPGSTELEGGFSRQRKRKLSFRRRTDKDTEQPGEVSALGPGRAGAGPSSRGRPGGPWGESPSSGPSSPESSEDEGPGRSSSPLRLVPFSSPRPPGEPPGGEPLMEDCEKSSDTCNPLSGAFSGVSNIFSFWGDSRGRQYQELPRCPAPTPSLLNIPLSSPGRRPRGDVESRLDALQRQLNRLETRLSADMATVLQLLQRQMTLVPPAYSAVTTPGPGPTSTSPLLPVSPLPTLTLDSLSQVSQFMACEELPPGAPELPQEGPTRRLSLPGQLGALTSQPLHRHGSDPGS

First: O=C(NC1CCCC1)C(c1cccnc1)N(Cc1ccccc1)C(=O)c1csnn1 (stereo not drawn)
Second: COc1ccc(N(C(=O)CNC(=O)c2ccco2)C(C(=O)NC2CCCC2)c2ccncc2)cc1 (stereo not drawn)
The “hERG current change (%, negative = inhibition) at 1uM” value of the first is lower: 10.4% for the first, 12.3% for the second.

Going from COc1ccc(N(CC(=O)Nc2ccc3c(c2)OCCO3)S(C)(=O)=O)c(OC)c1 to CCN1CCN(S(=O)(=O)c2ccc(Cl)c(C(=O)N(C)Cc3cccc(OC)c3)c2)CC1, the “hERG current change (%, negative = inhibition) at 1uM” value rises from 0.263% to 6.8%.

First: FC(F)(F)c1cccc(Cc2noc(CN3CCSCC3)n2)c1
Second: CCn1cc(S(=O)(=O)N2CCN(Cc3cccc(Cl)c3)CC2)cn1
The “hERG current change (%, negative = inhibition) at 1uM” value of the first is lower: 4.83% for the first, 9.11% for the second.

Going from CCc1c(C(=O)NC2CCCCC2)[nH]c(C)c1C(C)=O to CCC1(c2ccc(OC)cc2)NC(=O)N(CC(=O)NC2CCCCC2C)C1=O (stereo not drawn), the “hERG current change (%, negative = inhibition) at 1uM” value falls from 20.4% to 2.68%.

Going from S=c1[nH]nc(-c2ccc(Br)cc2)n1Cc1ccco1 to CCCc1cc(=O)n2[nH]c(-c3ccc(Br)cc3)cc2n1, the “hERG current change (%, negative = inhibition) at 1uM” value falls from 7.89% to -6.05%.

First: CC(=O)OC(C(=O)NCc1ccco1)c1cccnc1 (stereo not drawn)
Second: Cc1ccc(S(=O)(=O)NCC(=O)N(CC(=O)NCc2ccco2)Cc2ccco2)cc1
The “hERG current change (%, negative = inhibition) at 1uM” value of the first is higher: 8.94% for the first, -7.04% for the second.

Going from Cc1cccc(COCC(Cc2ccccc2)N2CCN(C(=O)c3cccc(Cl)c3)CCC2=O)c1 (stereo not drawn) to Cc1ccccc1OCC(=O)Nc1cc(Cl)ccc1Oc1ccccc1, the “hERG current change (%, negative = inhibition) at 1uM” value falls from 3.37% to -5.39%.

First: O=C(O)c1cc([N+](=O)[O-])ccc1NCCO
Second: O=Cc1ccc(-c2cccc([N+](=O)[O-])c2)o1
The “hERG current change (%, negative = inhibition) at 1uM” value of the first is lower: 0.572% for the first, 10.2% for the second.

First: CC(C)(C)n1nc2c(c1NC(=O)c1ccc(S(=O)(=O)N3CCCC3)cc1)CSC2
Second: CC(C)c1ccc(S(=O)(=O)N2CCN(C(=S)NCc3ccco3)CC2)cc1
The “hERG current change (%, negative = inhibition) at 1uM” value of the first is higher: 6.29% for the first, 4.96% for the second.

Going from FCCCOc1ccc(-c2ccnc(-c3ccccc3)n2)cc1 to O=C(OCc1ccc(-c2ccccc2)cc1)c1cccc(O)c1, the “hERG current change (%, negative = inhibition) at 1uM” value rises from 9.67% to 12.3%.

Compared with Cc1ccc(NC(=O)CN(C)C(=O)CCOc2cccc(C)c2)cc1, CCN(CC(=O)NCc1ccc(F)cc1)S(=O)(=O)c1ccc(C)cc1 is lower in “hERG current change (%, negative = inhibition) at 1uM” value: 5.63% for the first, -13.7% for the second.

Compared with CC1=NOC2(C)Nc3ncnn3C(c3ccccc3)C12 (stereo not drawn), Cc1cc(=O)[nH]c(N/N=C/c2cc(C)n(-c3ccccc3)c2C)n1 is higher in “hERG current change (%, negative = inhibition) at 1uM” value: -7.14% for the first, 15.9% for the second.

First: COc1ccc(OC)c(S(=O)(=O)N2CCN(C34CC5CC(CC(C5)C3)C4)CC2)c1
Second: Cc1ccc(-c2nnc(NC3CCCCC3)c3ccccc23)cc1S(=O)(=O)N1CCN(C)CC1
The “hERG current change (%, negative = inhibition) at 1uM” value of the first is higher: 6.12% for the first, -0.52% for the second.

Going from COc1ccc(C2C(C#N)=C(N)Oc3n[nH]c(C)c32)cc1Cn1cc([N+](=O)[O-])cn1 (stereo not drawn) to COc1ccccc1CNC(=O)CSc1n[nH]c(N)n1, the “hERG current change (%, negative = inhibition) at 1uM” value rises from 12.2% to 14.4%.

Going from Cc1cc(NC(=O)Cn2nc(C(=O)O)c3ccccc3c2=O)c([N+](=O)[O-])cc1C to O=C(O)CCCNC(=O)c1nn(Cc2ccccc2)c(=O)c2ccccc12, the “hERG current change (%, negative = inhibition) at 1uM” value falls from 15.4% to 14%.

Going from COc1ccc(NC(=O)Cn2cc(C#N)c3ccccc32)cc1 to COc1ccc(Oc2nnc(-c3ccc(C)cc3)c3ccccc23)cc1, the “hERG current change (%, negative = inhibition) at 1uM” value rises from 11.7% to 14%.

Going from COc1cc(CN2CCCC(C(=O)Nc3cccc(-n4cccn4)c3)C2)ccc1F (stereo not drawn) to O=C(Nc1ccccc1N1CCCCC1)c1ccc(-c2ccc(Cl)cc2)o1, the “hERG current change (%, negative = inhibition) at 1uM” value falls from 3.45% to -2.09%.

Going from Cc1ccccc1-n1c(C)nc2ccsc2c1=O.Cl to Cc1nc2ccc(Cl)cc2c(=O)n1-c1ccc([N+](=O)[O-])cc1, the “hERG current change (%, negative = inhibition) at 1uM” value falls from 17.1% to 7.13%.

Going from S=C(NCc1ccccc1)N1CCN(Cc2ccc3c(c2)OCO3)CC1 to O=S1(=O)N=C(N2CCN(Cc3ccc4c(c3)OCO4)CC2)c2ccccc21, the “hERG current change (%, negative = inhibition) at 1uM” value falls from 8.62% to 3.01%.

Going from COc1nccnc1NS(=O)(=O)c1ccc(N=Cc2c(C)[nH]n(-c3ccccc3)c2=O)cc1 to COc1ccc(S(=O)(=O)N(CC(=O)NCCSc2ccccn2)c2ccccc2)cc1, the “hERG current change (%, negative = inhibition) at 1uM” value falls from 14.6% to 9.8%.

Going from CC(=O)Nc1nc(C)c(S(N)(=O)=O)s1 to CC(C)CC(=O)Nc1nnc(S(=O)(=O)N(C)Cc2ccco2)s1, the “hERG current change (%, negative = inhibition) at 1uM” value rises from -17.8% to 21%.

Going from Cc1ccc(N(CC(=O)NCCSCc2ccco2)S(C)(=O)=O)cc1 to Cc1ccc(N(CC(=O)NCc2ccco2)C(=O)CNS(=O)(=O)c2ccccc2)c(C)c1, the “hERG current change (%, negative = inhibition) at 1uM” value rises from 6.78% to 10.3%.

Compared with CC1(C)CC(=O)C2=C(C1)N(c1cccc(Cl)c1)C(=O)NC2(C(F)(F)F)C(F)(F)F, CC(C)NC(=O)c1cc(C(=O)c2cc(Cl)ccc2O)coc1=N is lower in “hERG current change (%, negative = inhibition) at 1uM” value: 4.31% for the first, 2.84% for the second.

Going from COc1cc(CCCN2C(=O)C(=O)NC[C@@H]2CCCCN)cc(OC)c1OC to CCN(CC)C(=O)CSc1nnc(-c2cc(OC)cc(OC)c2)o1, the “hERG current change (%, negative = inhibition) at 1uM” value falls from 21.3% to 10.4%.

Going from CCn1c(CNS(=O)(=O)c2ccc(Cl)cc2)n[nH]c1=S to Cc1csc(=O)n1CC(=O)OCC(=O)NNC(=O)c1ccc([N+](=O)[O-])cc1, the “hERG current change (%, negative = inhibition) at 1uM” value falls from 9.49% to 1.14%.

Going from O=C(NCCCN1CCOCC1)c1ccccc1N1C(=O)[C@@H]2Cc3c([nH]c4ccccc34)C(c3ccc(F)cc3)N2C1=O (stereo partly drawn) to COc1ccc(C2/C(=C(/O)c3ccc(OC(C)C)cc3)C(=O)C(=O)N2CCCN2CCOCC2)cc1 (stereo not drawn), the “hERG current change (%, negative = inhibition) at 1uM” value rises from -23.1% to 6.08%.

Going from O=c1oc(C2(O)CCCCC2)cc2ccc(Br)cc12 to O=S(=O)(c1cccc(NC(=S)Nc2ccc(Br)cc2Cl)c1)N1CCOCC1, the “hERG current change (%, negative = inhibition) at 1uM” value falls from 19.6% to 7.43%.

Going from O=C(COc1cccnc1[N+](=O)[O-])NCc1cccs1 to Cc1nc(C)c(CCNC(=O)c2ccccc2Br)s1, the “hERG current change (%, negative = inhibition) at 1uM” value falls from 8.45% to 6.33%.

Compared with COc1ccc(C2=NOC(Cn3nc(C(=O)O)cc3-c3ccccc3)C2)cc1 (stereo not drawn), O=c1cc(-c2ccccc2)oc2ccc(O)cc12 is higher in “hERG current change (%, negative = inhibition) at 1uM” value: 4.01% for the first, 4.17% for the second.

Going from N#CC1=C(N)Oc2cc(O)c(C=Nc3ccccc3)cc2C1c1ccccc1 (stereo not drawn) to O=c1c2cc([N+](=O)[O-])ccc2nc(CN2CCN(c3ccccn3)CC2)n1-c1ccccc1F, the “hERG current change (%, negative = inhibition) at 1uM” value falls from 8.55% to 8.49%.

Compared with O=[N+]([O-])c1ccc(Sc2n[nH]c(-c3ccncc3)n2)nc1, Nn1c(SCc2cccc(F)c2)nnc1-c1cccnc1 is lower in “hERG current change (%, negative = inhibition) at 1uM” value: 13.8% for the first, 7.92% for the second.

First: COc1ccc(C(=O)OCc2csc(C)n2)c(O)c1
Second: CC(=O)c1coc2c1cc(O)c1ccccc12
The “hERG current change (%, negative = inhibition) at 1uM” value of the first is lower: 14.1% for the first, 16.5% for the second.

First: O=C(N/C(=C\c1ccccc1)C(=O)N1CCCCC1)c1ccc(Br)o1
Second: CCOC(=O)c1c(NC(C)=O)sc2c1CCN(Cc1ccccc1)C2.Cl
The “hERG current change (%, negative = inhibition) at 1uM” value of the first is lower: -0.538% for the first, 8.34% for the second.

Going from CC1CCN(C(=O)C(NS(=O)(=O)c2cccc3nsnc23)C(C)C)CC1 (stereo not drawn) to CCOc1ccc(CCNC(=O)C2CCCN(C(=O)N(C)C)C2)cc1OCC (stereo not drawn), the “hERG current change (%, negative = inhibition) at 1uM” value falls from 16.8% to 2.22%.

First: CC(OC(=O)CCc1nc2ccccc2c(=O)[nH]1)C(=O)c1ccc(Br)cc1 (stereo not drawn)
Second: CC(OC(=O)CCCC(=O)Nc1ccccc1)C(=O)c1ccccc1 (stereo not drawn)
The “hERG current change (%, negative = inhibition) at 1uM” value of the first is lower: 5.24% for the first, 9.71% for the second.

Going from COC(=O)C1=C(c2c(C)noc2C)C[C@@H]2CC[C@H]1N2C(=O)NCC1CC1 to COC(=O)c1sc(N)c(C(=O)OC)c1COC(=O)C1CC(=O)N(Cc2ccco2)C1 (stereo not drawn), the “hERG current change (%, negative = inhibition) at 1uM” value falls from 15.6% to 10.6%.

Going from CCOC(=O)c1c(C)n(Cc2ccc3c(c2)OCO3)c2ccc(O)cc12 to CCOC(=O)CN1C(=O)N[C@@H](CCc2ccccc2)C(C(C)=O)=C1C, the “hERG current change (%, negative = inhibition) at 1uM” value falls from 9.67% to 1.35%.

Compared with Cc1cc(NC(=O)Cn2nnc3sc4c(c3c2=O)CCCC4)no1, O=C(Cn1nnc2ccccc2c1=O)N[C@@H](Cc1ccccc1)C(=O)O is higher in “hERG current change (%, negative = inhibition) at 1uM” value: 7.27% for the first, 13% for the second.

First: Br.CCCCCCCn1c(=N)n(CC(=O)c2ccco2)c2ccccc21
Second: CCCCN(CC)CCCNC(=O)C1c2ccccc2C(=O)N(C)C1c1cn(C)c2ccccc12 (stereo not drawn)
The “hERG current change (%, negative = inhibition) at 1uM” value of the first is lower: -40% for the first, -39.1% for the second.

Compared with O=C(CNC(=O)c1cccnc1)N=Nc1c(O)[nH]c2c(Br)cc(Br)cc12, CCC(=O)N/N=C(\C)CC(=O)Nc1ccccc1-c1ccccc1 is higher in “hERG current change (%, negative = inhibition) at 1uM” value: -1.88% for the first, 3.9% for the second.

Compared with CCN(CC)CCCN=Cc1c(-c2ccccc2)[nH]n(-c2nc3ccccc3s2)c1=O, Cc1cccc(NC(=O)C2(C)CC3c4ccccc4C2c2ccccc23)c1C (stereo not drawn) is higher in “hERG current change (%, negative = inhibition) at 1uM” value: -81.7% for the first, 7.61% for the second.

Compared with CC(C)CC(OC(=O)c1ccco1)C(=O)NCC1CCCO1 (stereo not drawn), CSc1ccc(C(=O)C2CCCN(C(=O)CCn3cncn3)C2)cc1 (stereo not drawn) is lower in “hERG current change (%, negative = inhibition) at 1uM” value: 18.1% for the first, 0.648% for the second.

First: CN(C)c1ccc(Nc2c3c4c(cccc4n(C)c2=O)C(=O)c2ccccc2-3)cc1
Second: CC(C)(C)n1nnnc1C(c1ccncc1)N(Cc1ccccc1)Cc1ccco1 (stereo not drawn)
The “hERG current change (%, negative = inhibition) at 1uM” value of the first is higher: 14.5% for the first, 1.56% for the second.

CCCCN1CCNC1=S was tested, and the “hERG current change (%, negative = inhibition) at 1uM” value was 4.37%.
